Where “and” joins values, the source holds several entries; their conditions need not be identical. Equal values may be shown once. Screen size: about 420,000 compounds; about 64,000 (15%) were called active. The shares of active, inactive and inconclusive entries below differ from those in the screen. The call rests on the fitted dose curve; in most records, active means well fitted inhibition curve with a large enough effect; inconclusive means small, poorly fitted or top-dose-only effect; inactive means flat fitted curve, though single readings scatter. Where the call is inconclusive, the potency comes from a doubtful curve fit.
assay: qHTS for Inhibitors of human tyrosyl-DNA phosphodiesterase 1 (TDP1): qHTS in cells in absence of CPT; conditions: DT40 Tdp1-/- hTDP1 cells, no CPT, ATP luminescence, 48 h; activity change, negative = growth inhibition: at 46.2 µM (top of the series) unless noted; further: nearly all actives have a fitted effect of over 55% in size
Method in brief: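 Stably hTDP1-transfected Tdp1-null chicken DT40 cells were treated with library compounds minus camptothecin and grown for at least 48 hr at 37 °C, after which cellular ATP was quantified by luminescence.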
On the % scale 0 is the no-effect control and ±100 the full control effect; potency means the concentration at half of the fitted maximal effect; tags describe the fitted curve by direction and shape.

SMILES	Potency	activity change, negative = growth inhibition
CCOC(=O)c1cnn(-c2nc(-c3ccc(C)cc3)cs2)c1C(F)(F)F	inconclusive: 25.9 µM [inhibitor, single point]	
CN(C)c1ccc(C#Cc2ccc3cc(CCO)oc(=O)c3c2)cc1		inconclusive: -33.9% [inhibitor]
O=C1CCCN1c1ccc(S(=O)(=O)N2CCCCC2)cc1		inactive: -19.1%
COc1ccc(CCN2C(=O)C3C4CC(C5C(C(=O)NN)=NOC45)C3C2=O)cc1OC (centres undefined)		inactive: 0.679%
COc1ccccc1N1CCN(S(=O)(=O)c2c(C)sc3ncn(CC(=O)N(C)c4ccc(Cl)cc4)c(=O)c23)CC1	active: 16.4 µM	
CCCCn1c(N)c(N(CCC(C)C)C(=O)COC(=O)c2ccco2)c(=O)[nH]c1=O		inactive: -4.33%
CCCCN(c1ccccc1)c1ncnc2nc[nH]c12	inconclusive: 25.9 µM [inhibitor, single point]	
O=C(CCS(=O)(=O)c1ccc(Cl)cc1)OCC(=O)N1CCCCC1		inactive: 9.43%
COc1ccc(C2/C=C\CN(S(=O)(=O)c3cccs3)CC(=O)N2Cc2ccc(F)cc2)cc1 (centres undefined)	inconclusive: 29.1 µM [inhibitor, single point]	
CCOc1cccc(/C=N/NC(=O)C2CCCC2)c1O	inconclusive: 29.1 µM [inhibitor, single point]	
CCOC(=O)N1CCN(C(=O)c2cnn3c(C(F)F)cc(-c4ccc(C)cc4)nc23)CC1	inconclusive: 29.1 µM [inhibitor, partial curve, poor fit]	
COc1cc(NS(=O)(=O)c2ccc(NC(=O)/C=C/c3ccc([N+](=O)[O-])cc3)cc2)ncn1	inconclusive: 29.1 µM [inhibitor, single point]	
Oc1c(C(c2ccccc2F)N2CCN(Cc3ccccc3)CC2)sc2nc(-c3ccco3)nn12 (centres undefined)		inactive: -21%
Nc1nc(SCC(=O)Nc2ccccc2Oc2ccccc2)n[nH]1	inconclusive: 20.6 µM [inhibitor, single point]	
Cc1ccc(S(=O)(=O)N2CCN(CCc3ccccc3)CC2)c(C)c1	inconclusive: 32.6 µM [inhibitor, partial curve, poor fit]	
Cc1noc(C)c1-c1nc(N(C)Cc2ccco2)c2ccccc2n1	inconclusive: 14.6 µM [inhibitor, single point]	
CC(C)N(Cc1ccccc1)C(=O)CN1c2cccc3cccc(c23)S1(=O)=O	inconclusive: 20.6 µM [inhibitor, single point]	
COc1ccc(-n2c(Cc3cccs3)nnc2SCC(=O)Nc2ccc3c(c2)OCCO3)cc1	inconclusive: 25.9 µM [inhibitor, single point]	
CCCCCCCCCCCCN1[C@@H](CC(=O)O)c2cc(C(F)(F)F)ccc2S1(=O)=O	inconclusive: 35.5 µM [inhibitor, single point] and inconclusive: 29.1 µM [inhibitor, single point]	
CC(c1ccco1)N(C(=O)COc1ccccc1[N+](=O)[O-])c1ccccn1 (centres undefined)		inconclusive: -36.3% [inhibitor]
CN(CC(=O)Nc1ccccc1C(F)(F)F)C(=O)c1ccc(N2C(=O)CCC2=O)cc1		inactive: -1.82%
Cc1ccc2[nH]c(=O)c(CN(Cc3ccccc3)Cc3nnnn3C3CCCC3)cc2c1	inconclusive: 29.1 µM [inhibitor, single point]	
CCOc1ccccc1N(C)C(=O)C1CCCN(c2ncnc3c2nc2n3CCCCC2)C1 (centres undefined)		inactive: -10.8%

SMILES	Potency	activity change, negative = growth inhibition
Cc1ccc(-n2ncc3c(Nc4cccc(C)c4C)ncnc32)cc1	inconclusive: 25.9 µM [inhibitor, single point]	
Cc1ccc(N(C)S(=O)(=O)c2csc(C(N)=O)c2)cc1C		inactive: -12.8%
CCC(C)NS(=O)(=O)c1ccc(NC(=O)C(Sc2ccccc2)c2ccccc2)cc1 (centres undefined)	inconclusive: 29.1 µM [inhibitor, single point]	
Cc1[nH][nH]c(=O)c1N=Nc1ccc(Cl)cc1	inconclusive: 23.1 µM [inhibitor, partial curve]	
COc1ccc2nc(SCC(=O)NC3(C#N)CCCCC3)[nH]c2c1		inactive: -19.2%
C=CCn1c(SCCN)nnc1-c1cccc(S(=O)(=O)N2CCOCC2)c1	inconclusive: 25.9 µM [inhibitor, partial curve]	
Nc1c(C(=O)CSc2nnc(Cc3ccccc3)o2)c(=O)[nH]c(=O)n1C1CC1		inactive: -20.7%
C/C=C/c1cccc(-c2nc(C(=O)NC3CCCC3)cc3c2[C@@H](CCO)N(S(=O)C(C)(C)C)C3)c1 (some centres undefined)	active: 18.4 µM	
CC1CC2CCCC(O)=C2C(=O)O1 (centres undefined)		inactive: -2.44%
CCC(C)[C@H]1CN=C(N)N1CC1CCCCC1 (some centres undefined)	active: 2.31 µM	
COc1ccc(C(=O)Nc2ccc(Nc3ccccc3)cc2)cc1[N+](=O)[O-]	active: 20.6 µM	
COc1ccc(N(C(=O)c2ccco2)S(=O)(=O)c2cc(OC)ccc2OC)cc1		inactive: -35%
Cc1ccc(Cl)cc1NC(=O)Cn1c(=O)oc2cc(S(=O)(=O)N3CCCC3)ccc21	active: 9.2 µM	
Cc1ccc2c(CC(=O)Nc3ccc(S(=O)(=O)N4CCCCC4)cc3)coc2c1	inconclusive: 29.1 µM [inhibitor, single point]	
Cc1cccc(C(=O)OCC(=O)Nc2c(C)n(C)n(-c3ccccc3)c2=O)c1O		inactive: 8.3%
COc1ccc(CNC(=O)CN2CCN(c3ccc(F)cc3)CC2)cc1		inactive: -4.93%
COC(=O)c1sccc1NC(=O)Nc1cccc(C)c1C		inactive: 0.475%
COc1ccc(C(=O)Nc2cc3c4c(c2)C(C)C(=O)N4CCC3)c(OC)c1 (centres undefined)	inconclusive: 29.1 µM [inhibitor, single point]	
O=C(OCC#Cc1c(COC(=O)c2ccccc2)nnn1Cc1ccccc1)c1ccccc1	inconclusive: 29.1 µM [inhibitor, single point]	
CCc1cc2c(SCC(=O)N3CCN(C(=O)c4cccs4)CC3)ncnc2s1	inconclusive: 18.4 µM [inhibitor, single point]	
CCOc1cc(Br)ccc1S(=O)(=O)N1CC(C)OC(C)C1 (centres undefined)	inconclusive: 29.1 µM [inhibitor, single point]	
O=C(C1CCN(S(=O)(=O)N2CCOCC2)CC1)N1CCN(Cc2ccc3c(c2)OCO3)CC1	inconclusive: 5.17 µM [inhibitor, single point]	
NC(=O)C(c1ccc(Sc2ccccc2)nn1)c1ccc(Cl)cc1Cl (centres undefined)	inconclusive: 25.9 µM [inhibitor, partial curve, poor fit]	

SMILES	Potency	activity change, negative = growth inhibition
CC1(C)OC(=O)C2=C(C[C@@H](C3CCCC3)O[C@@H]2c2ccc(Cl)cc2)O1	inconclusive: 20.6 µM [inhibitor, single point]	
CCC(C(=O)NCc1ccc(C)o1)n1nc(C)c2c(C)n(-c3ccccc3)nc2c1=O (centres undefined)		inactive: -10.4%
CCOc1ccc(-n2c(C)c(C(C)=O)c(C(C)=O)c2C)cc1	inconclusive: 20.6 µM [inhibitor, single point]	
O=C(C(=O)N1CCN(C(=O)OCc2ccccc2)CC1)c1cccs1	inconclusive: 23.1 µM [inhibitor, single point]	
CC(=O)Nc1c(O)nc(SCC(=O)Nc2nnc(SCc3ccccc3)s2)[nH]c1=O		inactive: 27.6%
O=C(Nc1ccccc1)OCc1cncs1		inactive: -24.5%
COc1ccc(S(=O)(=O)NC(=O)C2(C)CCN2C(=O)COc2ccc(Cl)cc2)cc1 (centres undefined)		inactive: -15.8%
O=C(NCCS(=O)(=O)N1CCN(c2ccccc2)CC1)c1cccc(F)c1		inconclusive: -31.5% [inhibitor]
COc1ccc(N2CCOCC2)c(NC(=O)c2cccs2)c1	inconclusive: 16.4 µM [inhibitor, partial curve]	
NC1=NC[C@H](Cc2ccc(O)cc2)N1CCc1cccc(F)c1	inconclusive: 8.2 µM [inhibitor, partial curve]	
COc1ccc(N2CCCn3c2nc2c3c(=O)n(Cc3ccc(C)cc3)c(=O)n2C)c(OC)c1	inconclusive: 29.1 µM [inhibitor, single point]	
CCOC(=O)c1cc(-c2ccccc2)n(CCC(=O)N2CCN(c3ccccc3OC)CC2)c1C	active: 8.2 µM	
OC[C@@H]1CN(Cc2ccccc2)C[C@H](n2cnc3c(NC4CCCC4)ncnc32)O1	inconclusive: 29.1 µM [inhibitor, single point]	
COC(=O)CC1C(=O)NCCN1Cc1cn(-c2ccc(C)cc2)nc1-c1cccc(C)c1 (centres undefined)	inconclusive: 29.1 µM [inhibitor, single point]	
Cc1ccc(CN2C(=O)C3(c4ccccc42)N(c2cccc(F)c2)C(=O)CS3(=O)=O)cc1 (centres undefined)	inconclusive: 20.6 µM [inhibitor, single point]	
CC(=O)C1=CCC(c2ccccc2)N(S(=O)(=O)c2ccc(Cl)cc2)C1 (centres undefined)	active: 14.6 µM	
COc1ccccc1N1CCN(CCCNC(=O)c2cnn(-c3cccc(Cl)c3)c2C2CCN(C(=O)OC(C)(C)C)CC2)CC1	active: 7.31 µM	
COC(=O)N1CCC[C@@]2(CCN(c3ncccn3)C2)C1		inactive: -5.77%
O=C(NCC1CCCO1)C1CCN(S(=O)(=O)c2ccc(Br)cc2)CC1 (centres undefined)		inactive: 10.5%
CC(C)=CCC/C(C)=C/CNC(=O)C[C@H]1C[C@H](C(=O)N2CCCCC2)[C@@]2(CCc3ccccc3)c3[nH]c4cc(-c5ccco5)ccc4c3CCN2C1=O	inconclusive: 18.4 µM [inhibitor, single point]	
COc1cc(CCC(C)=O)ccc1OC(=O)c1c(F)cccc1Cl	inconclusive: 20.6 µM [inhibitor, single point]	
COCCCNC(=S)NCCNc1nc2c(C)c(C)ccc2cc1C#N	inconclusive: 23.1 µM [inhibitor, single point]	
CC(C)c1ccc(/C=N/NC(=O)C2CCCC2)cc1	inconclusive: 9.2 µM [inhibitor, partial curve]	
